In the supplement of paper PMC3334620:
In all, about 33,000 sequences were measured (“E-score (-0.5 to 0.5)”: median about -0.035, highest 2% from about 0.34 on). This is one part of the list.

Each sequence was assayed against T1, Mot3 (UniProt P54785) (assay: PBM E-score (8-mer binding enrichment) (E-score (-0.5 to 0.5)); higher = stronger / more preferred TF binding; most listed sequences are background and not binding sites). Details: protein concentration: 200 nM; construct: GST-full length.
T1 sequence: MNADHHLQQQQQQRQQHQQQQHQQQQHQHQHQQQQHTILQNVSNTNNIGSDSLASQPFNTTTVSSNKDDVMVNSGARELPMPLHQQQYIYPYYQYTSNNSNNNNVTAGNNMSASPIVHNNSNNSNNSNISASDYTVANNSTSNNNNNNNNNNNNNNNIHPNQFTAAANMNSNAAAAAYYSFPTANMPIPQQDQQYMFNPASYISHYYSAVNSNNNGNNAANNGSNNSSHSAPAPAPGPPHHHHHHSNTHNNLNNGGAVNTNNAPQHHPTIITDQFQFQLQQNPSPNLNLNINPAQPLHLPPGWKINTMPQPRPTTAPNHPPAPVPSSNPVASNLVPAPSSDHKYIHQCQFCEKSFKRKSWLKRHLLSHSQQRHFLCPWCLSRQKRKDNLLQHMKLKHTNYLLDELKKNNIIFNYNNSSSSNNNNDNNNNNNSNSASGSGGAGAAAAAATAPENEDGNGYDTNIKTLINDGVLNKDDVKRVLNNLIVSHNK
How it was run: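 Yeast transcription factors, full-length or as DNA-binding domains, were expressed with a GST tag using PURExpress in vitro transcription/translation. At about 100-200 nM they were applied to universal all-10-mer Agilent arrays, double-stranded by primer extension on fresh or once-stripped slides. Fluorescent anti-GST detected bound protein, and masliner normalised the scans. E-scores for ungapped eight-base words, pooled with reverse complements, came from the Universal PBM Analysis Suite.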

| Sequence | PBM E-score |
| --- | --- |
| TCAACCCA | -0.119 |
| ATGAGTGA | -0.168 |
| GATAATCA | -0.0893 |
| AATTGAAA | 0.0818 |
| TGTAGTAA | 0.24 |
| CATCATTC | -0.111 |
| ATGTGAAG | 0.281 |
| ATTCTGAC | -0.141 |
| CCAGAATC | -0.0358 |
| GCTCTAAC | -0.265 |
| CACTGAGG | -0.0281 |
| CGAAATCA | 0.131 |
| CGAGAAGA | -0.0604 |
| GCCTCACA | 0.212 |
| ATCGACCG | -0.279 |
| CGAGTTGC | 0.0141 |
| CTGGGCGA | -0.263 |
| AAGGCGAT | 0.143 |
| ATCGCGAA | -0.0779 |
| TCAAAAAA | 0.046 |
| AGTGATAG | 0.0766 |
| TGCACGAA | 0.0654 |

| Sequence | PBM E-score |
| --- | --- |
| TCAGTGGA | -0.218 |
| CCAGCCGG | -0.245 |
| ACAAACGA | 0.228 |
| ATCTGCAT | -0.144 |
| ACTGTTAT | 0.0403 |
| AAGTAACT | 0.0102 |
| AATAACGT | 0.191 |
| ATAACAGG | 0.229 |
| CGGGAGTC | -0.361 |
| CGTTAACA | 0.244 |
| GCGAAAAC | -0.0151 |
| CATGGATA | 0.166 |
| AACACTTA | 0.0717 |
| CGTGTCGC | 0.0788 |
| AGAAGCGA | -0.0571 |
| CAATCAGA | 0.0437 |
| CACACTGG | -0.0931 |
| ACAGTCAG | -0.0154 |
| CACCAACC | -0.151 |
| ACAATTAA | 0.0891 |
| CTCGCTAC | -0.206 |
| CCAAGGGG | -0.243 |

| Sequence | PBM E-score |
| --- | --- |
| GATAGTGA | -0.0691 |
| GAGCTAGC | -0.193 |
| AAGATGAG | 0.0134 |
| AAGAGCAC | -0.0564 |
| CCACGCGA | -0.138 |
| GAGCCATA | -0.139 |
| AAACCATA | -0.0448 |
| TCCATCGA | -0.0692 |
| TGCGCGAA | 0.0212 |
| TCTACTAA | 0.0381 |
| CAATACCA | 0.0932 |
| GGTAGAGA | -0.198 |
| AAATCGCG | 0.00312 |
| ATTTACCG | 0.0616 |
| GTCCGGTA | -0.107 |
| CGTATTTC | 0.215 |
| GGCTCTTA | -0.00724 |
| CATATGCG | 0.0335 |
| AACCTCAA | -0.0401 |
| CGAGGACG | -0.24 |
| GTACCAAA | 0.0359 |
| GGGTTGTA | 0.106 |

| Sequence | PBM E-score |
| --- | --- |
| ATGGATCC | -0.196 |
| GATTCGAC | 0.0203 |
| ATGGGGTA | -0.0156 |
| TCGGAAGA | -0.261 |
| GGGCTTAA | -0.167 |
| TAGTAGAA | 0.177 |
| ATTGTAGA | 0.14 |
| GCGGCGAA | -0.225 |
| AAGCCTTA | -0.147 |
| AAAGACTG | -0.078 |
| GTCGTGCA | 0.0491 |
| AGGGTAGG | 0.0464 |
| AGTGGTTA | 0.0302 |
| CCATACGC | -0.106 |
| ATACAGTG | -0.0188 |
| ACTTGGTA | 0.16 |
| CTGGGGAC | -0.125 |
| GGGGTACC | -0.158 |
| AGTTATTC | 0.0282 |
| ACTTTACT | 0.164 |
